# Measured values taken from PubChem BioAssay AID1671194 (National Center for Advancing Translational Sciences (NCATS), 2021).
# Among all 140,000 compounds or so, about 240 (0.17%) were called active. The inconclusive results got no clear call from the source; some entries with a clear call stand among them for comparison. Calls follow the shape of the dose curve; as a rule, active = well fitted inhibition curve with a large enough effect; inconclusive = small, poorly fitted or top-dose-only effect; inactive = no such curve, though single readings can be large or run the other way. Where the call is inconclusive, the potency comes from a doubtful curve fit.
# Assay: Primary qHTS assay for inhibitors of alpha-synuclein gene (SNCA) expression; also: nearly all actives have a fitted effect of over 45% in size;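 as to activity change, negative = inhibition: plate controls were DMSO cells for no effect and cell-free wells for full effect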
# Details: HEK-293 SNCA-luciferase knock-in, luminescence, 24 h; activity change, negative = inhibition: at 57.2 µM (top of the series) unless noted
# Potency is read from the fitted curve at half-maximal effect; tags tell the direction and shape of the fitted curve.
SMILES,Potency,"activity change, negative = inhibition"
Cc1ccc(Nc2ccnc(N3CCC(NC(=O)Cc4cccc(Cl)c4)CC3)n2)cc1,"inconclusive: 15.8 µM [inhibitor, single point]",–
COc1cccc(CN2CCCC(O)(CN3CCCCC3)C2=O)c1 (stereo not given),"inconclusive: 7.08 µM [inhibitor, single point]",–
Cc1nc(NC(=O)C2c3ccccc3C(=O)N(C3CCCC3)C23CCCC3)sc1C (stereo not given),–,inactive: -9.23%
CN(C)C(=O)c1nc(C(C)(C)C)c2ccccn12,–,inactive: -16.5% [at 87.6 µM]
Cc1cc(C)cc(NC(=O)C2CCCN(c3nnc(-n4c(C)ccc4C)s3)C2)c1 (stereo not given),"inconclusive: 7.08 µM [inhibitor, single point]",–
O=C1CC2(CCN([S+](=O)([O-])c3cccc(C(F)(F)F)c3)CC2)Oc2ccccc2N1c1ccccc1,"inconclusive: 39.8 µM [inhibitor, partial curve, poor fit]",–
O=C(N[C@H]1CCN2C(=O)c3cc(-c4cccc(C(F)(F)F)c4)ccc3NC(=O)[C@H]12)c1cnccn1,–,inactive: -33.3%
CCCc1ccc(OC(=O)c2sc3ncn(Cc4cccc(F)c4)c(=O)c3c2C)cc1,"inconclusive: 7.08 µM [inhibitor, single point]",–
COc1ccc(-c2cc(-c3ccc4cn[nH]c4c3)cn3cncc23)cn1,"inconclusive: 56.2 µM [inhibitor, single point]",–
CNC(=O)CCn1ncc2cc(OCc3ccccc3-c3cccc(CO)c3)ccc21,"inconclusive: 56.2 µM [inhibitor, single point]",–
Cc1ccc(-c2cc3c(=O)n(CCNC(=O)c4cc(F)ccc4F)ccn3n2)cc1C,–,inactive: 87.2%
COc1cncc(Nc2ncc(-c3cccc(N(C)C)c3)c3c2OCC3)c1,"inconclusive: 12.6 µM [inhibitor, partial curve, poor fit]",–
CN1CCN(c2ccc(-c3nc(-c4ccccc4)no3)cc2[N+](=O)[O-])CC1,"inconclusive: 1.41 µM [inhibitor, full curve, poor fit]",–
CC1(c2ccccc2)N(Cc2ccccc2)C(=O)OC12CCN(C(=O)Cc1cccc(F)c1)CC2 (stereo not given),"inconclusive: 5.01 µM [inhibitor, full curve, poor fit]",–
CC(=O)Nc1cc(-c2cn(C)c(=O)n3cc(CN4CC[S+](=O)([O-])CC4)nc23)ccn1,–,inactive: 2.75% [at 87.6 µM]
O=S1(=O)NC2(CCCN(CCc3ccccc3)C2)COc2ccccc21 (stereo not given),"inconclusive: 1.26 µM [inhibitor, full curve, poor fit]",–
CN1C(=O)[C@@H]2C[C@@H](O)CN2C2(CN(Cc3ccoc3)C2)C1=O,–,inactive: 20.6% [at 87.6 µM]
Cc1ccc(NC(=O)C2CCCN(S(=O)(=O)c3ccc(C)cc3)C2)cc1 (stereo not given),"inconclusive: 12.6 µM [inhibitor, partial curve, poor fit]",–
CC(C)N1C(=O)CO[C@H]2CCN(Cc3ccccc3Cl)CC[C@@H]21,–,inactive: -23% [at 87.6 µM]
CCC(Sc1nc2n[nH]c(C)c2c(=N)n1-c1ccc(Br)cc1)C(=O)N(CC)CC (stereo not given),"inconclusive: 22.4 µM [inhibitor, single point]",–
O=C(c1ccoc1)N1CCCN(C2CCC3(CCNCC3)CC2)CC1,"inconclusive: 39.8 µM [inhibitor, single point]",–
O=C(NCc1ccncc1)c1cc(C2CC2)nc2onc(C3CCNC3)c12 (stereo not given),"inconclusive: 8.91 µM [inhibitor, single point]",–

SMILES,Potency,"activity change, negative = inhibition"
O=C1COCC2(CN1Cc1ccccc1)CN(c1cccnc1)C2,–,inactive: -2.36% [at 87.6 µM]
Cc1ccc(CNC(=O)CCN2C(=O)C(C)Oc3ccc(C)cc32)cc1 (stereo not given),"inconclusive: 6.31 µM [inhibitor, single point]",–
Cc1ccc(Nc2c3c(nc4ccccc24)CCC3)cc1F,"inconclusive: 39.8 µM [inhibitor, single point]",–
CCOC(=O)C1=C(CN(CC)Cc2ccccc2)NC(=O)NC1c1ccc(Cl)cc1 (stereo not given),"inconclusive: 22.4 µM [inhibitor, single point]",–
CN1CC(=O)N(c2ccccc2)Cc2c(NCCCc3ccccc3)ncnc21,"inconclusive: 39.8 µM [inhibitor, single point]",–
COC1(C(F)(F)F)NC(=O)N(c2ccc(F)cc2)C1=O (stereo not given),"inconclusive: 39.8 µM [inhibitor, single point]",–
c1ccc(-c2nnc3ccc(NC4CCCCC4)nn23)nc1,–,inactive: 10.1% [at 87.6 µM]
CCc1nc2c(c(-c3ccc(O)cc3)n1)CN(Cc1ccsc1)CC2,–,inactive: 8.05%
Cc1cc(F)ccc1-c1[nH]nc2ncc(-c3cccnc3)nc12,"inconclusive: 5.62 µM [inhibitor, full curve, poor fit]",–
COc1ccc(-c2cc(N3CCN(C(=O)c4ccccc4Br)CC3)n[nH]2)cc1,"inconclusive: 3.16 µM [inhibitor, full curve, poor fit]",–
Cc1noc(-c2cccc(OC3CN(C(=O)NCc4ccc(F)cc4)C3)c2)n1,"inconclusive: 20 µM [inhibitor, single point]",–
Cc1c(-c2cccc(NC(=O)Cc3ccccc3)c2)nc2ncccn12,–,inactive: 97.9%
CCOCCOC1CCN(C(=O)c2cccc3[nH]ccc23)CC1,–,inactive: 54.1%
Cc1ccc(NC(=O)N2C[C@@H](F)C[C@H]2C(=O)N2CCc3ccccc3C2)cc1Cl,"inconclusive: 39.8 µM [inhibitor, single point]",–
COc1ccc(NC(=O)Cn2c(-c3ccccc3)nc(C)c(CCO)c2=O)cc1Cl,"inconclusive: 17.8 µM [inhibitor, single point]",–
CN(C)c1ccc(-c2cncnc2NCCc2cnc[nH]2)cc1,"inconclusive: 1.58 µM [inhibitor, full curve, poor fit]",–
O=C1N(c2ccccc2)c2ccccc2C12CCN(Cc1ccccc1)C2 (stereo not given),"inconclusive: 25.1 µM [inhibitor, single point]",–
CC(CCc1ccccc1)NC(=O)c1ccc(Cn2ccn3nc4c(c3c2=O)CCCC4)cc1 (stereo not given),–,inactive: -21.1%
COCCNC(=O)c1ccc(OC2CCN(Cc3ccc(C)s3)CC2)c(Cl)c1,–,inactive: -1.17%
O=C(CN1CCOCC1)N1CCC(c2nc(CCOCC3CCCC3)no2)C1 (stereo not given),"inconclusive: 28.2 µM [inhibitor, single point]",–
CCc1nc(-c2c3n(c(=O)n(Cc4ccccc4C)c2=O)CCCC3)no1,"inconclusive: 17.8 µM [inhibitor, partial curve, poor fit]",–
COc1ccccc1-c1[nH]ncc1CN1CCn2nnc(CCC(=O)N3CCCC3)c2C1,–,inactive: -29.6%

SMILES,Potency,"activity change, negative = inhibition"
COc1ccc(NC(=O)c2cccc3c2CCN3C(=O)c2ccc(F)cc2)c(OC)c1,"inconclusive: 39.8 µM [inhibitor, single point]",–
COc1ccc(CN2CCOc3nc(-c4cccc(C#N)c4)ncc3C2=O)cc1,–,inactive: 16.9% [at 87.6 µM]
COc1ccc2nc(C[C@@H]3C[C@@H](C(C)C)[C@H](CNCc4ccccn4)C=C3C)[nH]c2c1,"inconclusive: 31.6 µM [inhibitor, single point]",–
CCOc1ccc(NC(=O)c2cnn3c2NC(c2ccccc2)=CC3c2cccc(OC)c2OC)cc1 (stereo not given),"inconclusive: 39.8 µM [inhibitor, single point]",–
COCC1CN(C(C)=O)CC12CCN(C(=O)c1n[nH]c(=O)c3ccccc13)CC2 (stereo not given),"inconclusive: 17.8 µM [inhibitor, single point]",–
CN(C)C[C@H]1O[C@@H](CO)[C@@H](O)[C@H]1N1CCN(c2ccc(F)cc2)CC1,"inconclusive: 17.8 µM [inhibitor, partial curve, poor fit]",–
Cc1ccc(C(=O)N2CCC(C(=O)N3CCC(c4nc5ncccc5[nH]4)C3)CC2)cc1 (stereo not given),–,inactive: 11.6%
Cc1ccc(-c2cc3c(=O)n(CCNC(=O)c4ccco4)ccn3n2)c(C)c1,–,inactive: -4.74%
N#Cc1ccc(CN2CCC[C@H]2c2nc(-c3ccnc(N4CCOCC4)c3)no2)cc1,–,inactive: -0.349% [at 87.6 µM]
COc1ccc(-c2noc(Nc3cc(OC)cc(OC)c3)n2)cc1,–,inactive: 9.28%
Cc1ccccc1-n1c(=O)c2ccccc2n(Cc2ccc(F)cc2)c1=O,"inconclusive: 0.1 µM [inhibitor, full curve, poor fit]",–
Cc1ccncc1C(=O)N1CCCC(c2nnnn2C)C1 (stereo not given),"inconclusive: 5.01 µM [inhibitor, full curve, poor fit]",–
CC1=C[C@@H](CNCc2cccnc2)[C@H](C(C)C)C[C@H]1Cc1nnc(-c2ccccc2)o1,"inconclusive: 2.51 µM [inhibitor, full curve, poor fit]",–
OC[C@@H]1CNC[C@H]1C1CCN(Cc2cccc(F)c2)CC1,"inconclusive: 12.6 µM [inhibitor, partial curve, poor fit]",–
O=C(NCc1ccc(Cl)cc1)C(=O)NCC(c1cccnc1)N1CCN(c2ccccc2)CC1 (stereo not given),"inconclusive: 7.08 µM [inhibitor, partial curve, poor fit]",–
COc1cc(Cl)c(C)cc1NC(=O)Cn1cnc2sc(C)c(S(=O)(=O)N3CCCCC3)c2c1=O,"inconclusive: 31.6 µM [inhibitor, single point]",–
CCN(c1ccc(C)cc1C)S(=O)(=O)c1nnc(NC(=O)c2ccc(F)cc2)s1,"inconclusive: 39.8 µM [inhibitor, single point]",–
CCOc1ccc(CN2CCNC(=O)C2CC(=O)N2CCCCCC2)cc1 (stereo not given),–,inactive: 22.5%
Cc1noc(C)c1CN1CCc2nc(C(=O)NCc3ccccc3)oc2CC1,–,inactive: 4.05% [at 87.6 µM]
COc1ccc(N2CCN(C(=O)c3ccc(CS(=O)c4cccc(C)c4)o3)CC2)cc1 (stereo not given),"inconclusive: 25.1 µM [inhibitor, partial curve, poor fit]",–
Cc1ccc(S(=O)(=O)C(CNC(=O)C(=O)NCCc2ccc(F)cc2)c2cccs2)cc1 (stereo not given),"inconclusive: 7.08 µM [inhibitor, single point]",–
